Source: PubChem BioAssay (NCATS)
Where “and” joins values, the source holds several entries; their conditions need not be identical. Equal entries are not always repeated. The shares of active, inactive and inconclusive entries below differ from those in the screen. For part of these data: Potencies beside an inconclusive call are fits to weak or partial responses and may not hold up. For part of these data: A note “side channel” means that the fit belongs to a control or component signal, not to the main read-out. Calls of active or inactive are those of the source. Unless noted, the call rests on the fitted dose curve; in most records, active means well fitted curve in the direction sought with a large enough effect; inconclusive means small, poorly fitted or top-dose-only effect, or another doubt; inactive means no such curve, though single readings can be large; an effect the other way counts as inactive or inconclusive.

How the values were obtained:
[1] = NFAT Signaling Pathway (AID 444; active means well fitted curve in either direction with a large enough effect, not every such curve was filed as active; inconclusive means small, poorly fitted or top-dose-only effect, or another doubt;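 further: carbachol stimulus at about its EC50 of 1 µM final; on the % scale 0 is the no-effect control and ±100 the full control effect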); conditions: Jurkat NFAT-bla M1, carbachol, beta-lactamase ratio, 5 h; at 17.2 µM (top of the series) unless noted
Method in brief: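 Read-out: CCF4 FRET ratio (460 nm/530 nm) after 1 h RT dye loading, used for %activity and AC50 from titration series. Cells: Jurkat NFAT-β-lactamase/M1 line, treated with compound plus 1 uM carbachol for 5 h, 37 °C.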

[2] = Cell Viability - SK-N-SH (AID 435; calls by dose curve;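 further: potency means the concentration at half of the fitted maximal effect; compound exposure lasted 40 h at 37 °C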); conditions: SK-N-SH neuroblastoma cell viability qHTS
Method in brief: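 SK-N-SH neuroblastoma cells (1500/well) treated 40 h at 37 °C in complete medium; viability read as cellular ATP by CellTiter-Glo luminescence. Normalized to DMSO and 100 uM tamoxifen; AC50 from Hill fits of qHTS concentration-response.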

[3] = Cell Viability - HUV-EC-C (AID 542);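 further: cells exposed to compound for 40 hours; on the % scale 0 is the no-effect control and ±100 the full control effect; nearly all actives have a fitted effect of over 35% in size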
Method in brief: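 Decrease in cellular ATP, quantified by luciferase luminescence, reflects toxicity in normal human vascular endothelial HUV-EC-C cells given compound for 40 hr in complete culture medium. Values are AC50s from concentration-response curves.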

[4] = Cell Viability - H-4-II-E (AID 543);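 further: cells exposed to compound for 40 hours; on the % scale 0 is the no-effect control and ±100 the full control effect; nearly all actives have a fitted effect of over 35% in size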
Method in brief: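 Here, cytotoxicity is measured in the rat hepatoma line H-4-II-E as loss of intracellular ATP after 40 hr compound treatment, detected by luciferase luminescence.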

[5] = Cellular Toxicity (caspase-3) SHSY5Y (AID 657)
Method in brief: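 SH-SY5Y human neuroblastoma cells, 1500/well, exposed to compound for 16 hours at 37 °C in complete medium. Caspase-3/7 activity read by Caspase-Glo luminescence after 1 hr at room temperature, normalized to DMSO and 10 uM staurosporine; AC50 from Hill fit.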

[6] = Cell Viability - LYMP2-007 (AID 979); conditions: LYMP2-007 lymphoblastoid cell viability; activity change, negative = cytotoxicity: at 92.2 µM (top of the series);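 further: cells exposed to compound for 24 h before reading; 0% = DMSO only and the negative end = 92 µM tetraoctylammonium bromide; nearly all actives have a fitted effect of over 60% in size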
Method in brief: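 Acute toxicity is scored as a concentration-dependent fall in intracellular ATP in human lymphoblastoid cells treated 24 hr at 37 C, measured by luciferase luminescence; Hill-equation modelling yields AC50.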

[7] = qHTS assay to identify small molecules that stimulate interleukin-8 (IL-8) secretion (AID 651758; active means well fitted activation curve with a large enough effect in the signal ratio; inconclusive means small, poorly fitted or top-dose-only effect, or effect the other way, or a change in a side signal; the % refers to the signal ratio; further: potency means the concentration at half of the fitted maximal effect; on activation: 0% is about no effect); conditions: HTRF ratio (665/615); activation: at 92.2 µM (top of the series)
Method in brief: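 Secreted IL-8 measured by TR-FRET sandwich (cryptate and XL665 antibodies) from THP-1 cells exposed to compound overnight (16 hrs, 37 C).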

[8] = molecular target: Nuclear receptor ROR-gamma (Homo sapiens) (UniProt P51449); experiment: qHTS assay for small molecule antagonists of the retinoid-related orphan receptor gamma (ROR-gamma) signaling pathway (AID 651802);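 further: CHO cells with doxycycline-induced ROR-gamma expression; luciferase reporter luminescence driven by ROR response element; on the % scale 0 is the no-effect control and ±100 the full control effect; nearly all actives have a fitted effect of over 60% in size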
Chain of UniProt P51449 (P51449 whole entry, looked up): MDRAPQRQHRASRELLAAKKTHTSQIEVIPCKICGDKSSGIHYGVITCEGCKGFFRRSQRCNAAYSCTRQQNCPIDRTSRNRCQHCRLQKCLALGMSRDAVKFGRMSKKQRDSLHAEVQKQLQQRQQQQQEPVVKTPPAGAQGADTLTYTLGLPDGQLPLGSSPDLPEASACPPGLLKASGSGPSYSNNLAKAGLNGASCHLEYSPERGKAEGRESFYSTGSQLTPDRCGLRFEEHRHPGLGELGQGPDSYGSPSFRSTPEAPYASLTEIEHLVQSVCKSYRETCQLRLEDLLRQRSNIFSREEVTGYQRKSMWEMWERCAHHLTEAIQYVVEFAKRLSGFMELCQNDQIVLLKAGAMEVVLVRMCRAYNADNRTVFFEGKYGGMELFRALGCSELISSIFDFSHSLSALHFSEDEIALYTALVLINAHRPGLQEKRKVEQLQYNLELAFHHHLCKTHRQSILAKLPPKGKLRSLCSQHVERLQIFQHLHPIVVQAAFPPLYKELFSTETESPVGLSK
Method in brief: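 Antagonism is scored as a fall in luminescence from a RORE-luciferase reporter in CHO cells expressing ROR under a TET-inducible promoter, measured 16hr after doxycycline induction in the presence of compound.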

[9] = Cell Viability - LYMP2-005 (AID 967); further: potency means the concentration at half of the fitted maximal effect
Method in brief: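 Human lymphoblastoid LYMP2-005 cells, 2,500 per well in complete medium, rested 5 h at 37C then compound-treated 24 h at 37C. Intracellular ATP read by CellTiter-Glo luminescence after 30 min at room temperature; AC50 from Hill-equation fits of concentration-response data.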

[10] = Cell Viability - LYMP2-013 (AID 970); conditions: LYMP2-013 lymphoblastoid cells viability; activity change, negative = cytotoxic: at 92.2 µM (top of the series);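 further: 0% = DMSO only and full inhibition = tetraoctylammonium bromide control; nearly all actives have a fitted effect of over 55% in size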
Method in brief: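 Acute toxicity was measured in human lymphoblastoid cells (2500/well) exposed to compound titrations for 24 hr, with ATP luminescence (CellTiter-Glo) as read-out and AC50 fitted by Hill equation.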

[11] = Cell Viability - LYMP2-002 (AID 977); conditions: LYMP2-002 lymphoblastoid cell viability, qHTS; activity change, negative = cytotoxic: at 92.2 µM (top of the series);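 further: compound exposure lasted 24 h at 37 °C; plate controls were DMSO only for no effect and 92 µM tetraoctylammonium bromide for full effect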
Method in brief: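 Cytotoxicity is scored as concentration-dependent loss of cellular ATP in a human lymphoblastoid line after 24 hr compound treatment at 37 C. AC50 is obtained by modelling concentration-response data with the Hill equation.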

[12] = Cell Viability - LYMP2-014 (AID 983);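 further: plate controls were DMSO only for no effect and 92 µM tetraoctylammonium bromide for full effect; nearly all actives have a fitted effect of over 50% in size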
Method in brief: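 Decrease in intracellular ATP after 24 hr treatment at 37 C, measured by luciferase luminescence, indicated cytotoxicity. Concentration-response data were fitted with the standard Hill equation to give AC50.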

[13] = molecular target: Estrogen receptor (Homo sapiens) (UniProt P03372); experiment: qHTS assay for small molecule agonists of estrogen receptor alpha signaling (AID 588514; calls by dose curve;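 further: 0% = vehicle only and 100% = reference agonist; nearly all actives have a fitted effect of over 70% in size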); conditions: ER-alpha-UAS-bla HEK293, beta-lactamase ratio, 18 h; activation: at 76.8 µM (top of the series), percent of full estradiol response, vehicle zero
Chain of UniProt P03372 (P03372 whole entry, looked up): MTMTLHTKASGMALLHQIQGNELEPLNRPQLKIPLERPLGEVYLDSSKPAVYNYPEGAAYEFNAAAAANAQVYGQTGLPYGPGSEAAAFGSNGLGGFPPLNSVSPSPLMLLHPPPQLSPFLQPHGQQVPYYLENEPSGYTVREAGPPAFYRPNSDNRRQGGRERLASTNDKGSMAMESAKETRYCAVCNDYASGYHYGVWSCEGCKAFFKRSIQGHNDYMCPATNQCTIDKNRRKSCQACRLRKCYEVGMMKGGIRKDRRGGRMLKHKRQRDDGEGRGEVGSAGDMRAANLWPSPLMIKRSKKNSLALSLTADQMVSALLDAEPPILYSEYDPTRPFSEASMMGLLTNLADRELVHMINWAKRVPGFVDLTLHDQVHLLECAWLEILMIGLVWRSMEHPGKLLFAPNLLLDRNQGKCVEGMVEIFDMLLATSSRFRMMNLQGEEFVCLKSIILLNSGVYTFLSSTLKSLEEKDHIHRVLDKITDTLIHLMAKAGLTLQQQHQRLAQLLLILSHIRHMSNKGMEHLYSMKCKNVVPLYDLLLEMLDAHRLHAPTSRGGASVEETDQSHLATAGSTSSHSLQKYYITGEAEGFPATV
Method in brief: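 Reporter-gene assay. […] controls beta-lactamase in HEK 293 GripTite cells; after 18 hrs with compound, CCF4 substrate is added for 2 hrs and fluorescence is read.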

[14] = molecular target: Peroxisome proliferator-activated receptor gamma (Homo sapiens) (UniProt P37231); experiment: qHTS assay for small molecule antagonists of peroxisome proliferator-activated receptor gamma signaling (AID 588537; active means well fitted inhibition curve with a large enough effect in the signal ratio, with a control signal flat, not every such curve was filed as active; inconclusive means small, poorly fitted or top-dose-only effect, or effect the other way, or a change in a side signal; the % refers to the signal ratio;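 further: reporter cells co-stimulated with 50 nM rosiglitazone agonist during compound treatment; % of control where 0% means no effect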); conditions: HEK293 PPARg-UAS-bla, beta-lactamase ratio, antagonist mode; activity, negative = inhibition: at 76.8 µM (top of the series)
Method in brief: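 Inhibitors of agonist-stimulated UAS-bla reporter activity were sought in HEK293 cells; rosiglitazone (50 nM) defined full signal and DMSO baseline. Curves fitted to Hill model gave IC50 and efficacy.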

[15] = molecular target: Retinoic acid receptor RXR-alpha (Homo sapiens) (UniProt P19793); experiment: qHTS assay for small molecule agonists of retinoid X receptor alpha signaling (AID 588544; calls by dose curve; further: potency means the concentration at half of the fitted maximal effect); conditions: HEK293T RXRa-UAS-bla, beta-lactamase reporter, 18 h; activation: at 76.7 µM (top of the series) unless noted
Chain of UniProt P19793 (P19793 whole entry, looked up): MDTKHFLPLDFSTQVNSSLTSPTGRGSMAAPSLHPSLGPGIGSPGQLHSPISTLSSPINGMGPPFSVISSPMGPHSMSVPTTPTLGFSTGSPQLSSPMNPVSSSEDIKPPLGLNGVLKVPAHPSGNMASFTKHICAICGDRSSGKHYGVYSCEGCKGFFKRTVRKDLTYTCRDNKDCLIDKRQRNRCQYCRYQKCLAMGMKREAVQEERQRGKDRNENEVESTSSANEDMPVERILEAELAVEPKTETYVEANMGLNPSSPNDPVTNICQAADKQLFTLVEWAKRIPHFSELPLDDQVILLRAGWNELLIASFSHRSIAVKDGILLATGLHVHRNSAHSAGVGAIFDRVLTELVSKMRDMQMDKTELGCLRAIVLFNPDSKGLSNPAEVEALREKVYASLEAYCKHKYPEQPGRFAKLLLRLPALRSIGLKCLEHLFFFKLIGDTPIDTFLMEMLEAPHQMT

[16] = molecular target: Thyroid hormone receptor beta (Homo sapiens) (UniProt P10828); experiment: qHTS assay for small molecule antagonists of thyroid hormone receptor beta signaling (AID 588547; active means well fitted inhibition curve with a large enough effect in the signal ratio, with a control signal flat, not every such curve was filed as active; inconclusive means small, poorly fitted or top-dose-only effect, or effect the other way, or a change in a side signal; the % refers to the signal ratio;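 further: cells stimulated with 0.4 nM T3 agonist during compound exposure; on the % scale 0 is the no-effect control and ±100 the full control effect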); conditions: TR-UAS-bla HEK293, beta-lactamase ratio, antagonist mode, 18 h
Chain of UniProt P10828 (P10828 whole entry, looked up): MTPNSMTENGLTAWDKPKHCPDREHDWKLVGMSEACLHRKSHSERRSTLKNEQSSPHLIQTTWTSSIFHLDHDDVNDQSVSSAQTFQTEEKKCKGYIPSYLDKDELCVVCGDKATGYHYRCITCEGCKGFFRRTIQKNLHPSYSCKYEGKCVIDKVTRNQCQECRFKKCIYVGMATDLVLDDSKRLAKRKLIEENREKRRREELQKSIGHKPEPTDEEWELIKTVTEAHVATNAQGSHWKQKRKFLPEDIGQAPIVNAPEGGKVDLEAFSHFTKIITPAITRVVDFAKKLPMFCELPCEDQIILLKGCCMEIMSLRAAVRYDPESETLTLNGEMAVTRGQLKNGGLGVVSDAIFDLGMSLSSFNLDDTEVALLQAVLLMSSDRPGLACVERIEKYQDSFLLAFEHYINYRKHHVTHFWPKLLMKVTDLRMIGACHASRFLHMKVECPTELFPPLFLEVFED
Method in brief: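 Inhibition of T3-driven (0.4nM final) beta-lactamase reporter activity was measured over 0.59 nM to 92 uM compound after 18 h at 37 C. The cells were GripTite HEK293 TR-UAS-bla in charcoal/dextran-stripped serum, with CCF4 ratio read-out and IC50 from Hill fits.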

[17] = qHTS assay for small molecule agonists of the antioxidant response element (ARE) signaling pathway (AID 651741; active means well fitted activation curve with a large enough effect in the signal ratio; inconclusive means small, poorly fitted or top-dose-only effect, or effect the other way, or a change in a side signal; the % refers to the signal ratio; further: % of control where 0% means no effect); conditions: HepG2 ARE-bla reporter, beta-lactamase FRET ratio, 16 h; activation: at 96 µM (top of the series) unless noted
Method in brief: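 Seeding 2,000 ARE-bla HepG2 cells per well preceded a 5 h incubation at 37 C/5% CO2 and a 16 h compound exposure at 37 C. Beta-lactamase reporter activity was then quantified by fluorescence after 2 h with LiveBLAzer B/G FRET substrate.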

[18] = qHTS assay for cell viability of the p53RE-bla HCT-116 cell line (AID 743292); further: on the % scale 0 is the no-effect control and ±100 the full control effect; nearly all actives have a fitted effect of over 55% in size
Method in brief: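 HCT-116 p53RE-bla cells seeded 4,000/well; 5 h at 37 C; compound (DMSO) added; 16 h at 37 C; CellTiter-Glo added, 30 min RT; luminescence read.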

[19] = molecular target: Peroxisome proliferator-activated receptor delta (Homo sapiens) (UniProt Q03181); experiment: qHTS assay for small molecule antagonists of peroxisome proliferator-activated receptor delta signaling (AID 588535; active means well fitted inhibition curve with a large enough effect in the signal ratio, with a control signal flat, not every such curve was filed as active; inconclusive means small, poorly fitted or top-dose-only effect, or effect the other way, or a change in a side signal; inactive means no such curve, though single readings can be large or run the other way; the % refers to the signal ratio); conditions: HEK293T PPARd-UAS-bla, beta-lactamase FRET ratio, 18 h; activity change, negative = inhibition: at 76.7 µM (top of the series)
Chain of UniProt Q03181 (Q03181 whole entry, looked up): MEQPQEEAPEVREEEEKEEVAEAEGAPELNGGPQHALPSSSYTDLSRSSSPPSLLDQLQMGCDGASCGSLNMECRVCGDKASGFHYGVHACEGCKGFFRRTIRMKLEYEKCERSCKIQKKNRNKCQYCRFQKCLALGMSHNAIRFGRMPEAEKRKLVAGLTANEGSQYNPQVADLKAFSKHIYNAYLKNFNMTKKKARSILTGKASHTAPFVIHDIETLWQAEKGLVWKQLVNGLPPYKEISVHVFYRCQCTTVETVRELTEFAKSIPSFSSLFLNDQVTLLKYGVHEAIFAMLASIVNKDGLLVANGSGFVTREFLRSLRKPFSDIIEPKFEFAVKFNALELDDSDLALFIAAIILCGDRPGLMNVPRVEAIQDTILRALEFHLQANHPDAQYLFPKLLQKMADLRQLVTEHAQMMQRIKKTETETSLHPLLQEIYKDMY
Method in brief: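 Cell-based beta-lactamase assay in antagonist mode: 4000 HEK293T PPAR-delta-UAS-bla cells per well, 5 hr preincubation then 18 hr compound incubation at 37 C. IC50 obtained by Hill equation fitting.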

[20] = qHTS assay for small molecule activators of the nuclear factor-kappa B (NF-kB) signaling pathway (AID 651749; active means well fitted activation curve with a large enough effect in the signal ratio; inconclusive means small, poorly fitted or top-dose-only effect, or a change in a side signal; the % refers to the signal ratio; further: % of control where 0% means no effect); conditions: NF-kB-bla ME-180 cells, beta-lactamase FRET ratio, 16 h; activation: active compounds read high
Method in brief: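 Stably transfected ME-180 line; NF-kB response element upstream of beta-lactamase. Treatment: compound or DMSO, 16 hr. Detection: fluorescent FRET substrate.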

[21] = qHTS assay for small molecule agonists of the antioxidant response element (ARE) signaling pathway measured by Nrf2-dependant transcriptional activity (AID 720636; active means well fitted curve in the direction sought with a large enough effect in the repeat runs; inconclusive means weak or mixed curves; inactive means no such curve, though single readings can be large; an effect the other way counts as inactive or inconclusive;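 further: HepG2 cells with an ARE-driven luciferase reporter; % of control where 0% means no effect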)
Method in brief: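 Cells: ARE-luc HepG2 with Nrf2-responsive luciferase. Medium contained 1% dialyzed FBS. Compound exposure lasted 16 hr at 37 C and 5% CO2, followed by ONE-Glo luciferase detection.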

[22] = MultiTox-Fluor Cytotoxicity Assay - LYMP1-001 - Live Cells (AID 947); further: potency means the concentration at half of the fitted maximal effect
[23] = molecular target: Vitamin D3 receptor (Homo sapiens) (UniProt P11473); experiment: qHTS assay for small molecule agonists of vitamin D receptor signaling (AID 588543; calls by dose curve;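 further: 0% = DMSO basal and 100% = reference agonist control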); conditions: HEK293T VDR-UAS-bla, beta-lactamase ratio, 16 h; activation: at 76.8 µM (top of the series)
Chain of UniProt P11473 (P11473 whole entry, looked up): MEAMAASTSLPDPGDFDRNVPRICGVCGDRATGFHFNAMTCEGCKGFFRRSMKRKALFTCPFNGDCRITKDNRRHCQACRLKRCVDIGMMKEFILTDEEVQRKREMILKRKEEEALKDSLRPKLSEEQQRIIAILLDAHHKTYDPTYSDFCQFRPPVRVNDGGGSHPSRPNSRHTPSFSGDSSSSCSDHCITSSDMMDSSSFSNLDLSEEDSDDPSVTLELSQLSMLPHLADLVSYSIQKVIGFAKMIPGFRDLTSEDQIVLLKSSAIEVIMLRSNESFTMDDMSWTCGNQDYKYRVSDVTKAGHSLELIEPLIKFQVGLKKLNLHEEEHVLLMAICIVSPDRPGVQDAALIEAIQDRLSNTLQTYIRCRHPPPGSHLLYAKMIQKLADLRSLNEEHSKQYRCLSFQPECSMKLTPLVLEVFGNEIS
Method in brief: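 VDR-UAS-bla HEK293T cells, 2000/well, 2% charcoal-stripped FBS; compound titration 16 h at 37 C; CCF4 beta-lactamase ratio read. Normalized to 50 nM 1-alpha,25-dihydroxyvitamin D3 (100%) and DMSO; Hill fit gives EC50, efficacy.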

[24] = Cell Viability - LYMP2-001 (AID 921); further: potency means the concentration at half of the fitted maximal effect; nearly all actives have a fitted effect of over 70% in size
Method in brief: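 Human lymphoblastoid LYMP2-001 cells, 2500 per well, in complete medium, treated 24 h at 37 C. Viability from cellular ATP by CellTiter-Glo luminescence; AC50 from Hill-equation fits of qHTS concentration-response.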

[25] = molecular target: Estrogen receptor (Homo sapiens) (UniProt P03372); experiment: qHTS assay for small molecule antagonists of estrogen receptor alpha signaling (AID 588513; active means well fitted curve in the direction sought with a large enough effect in the signal ratio, with a control signal flat, not every such curve was filed as active; inconclusive means small, poorly fitted or top-dose-only effect, or effect the other way, or a change in a side signal; inactive means no such curve, though single readings can be large or run the other way; the % refers to the signal ratio; further: on the % scale 0 is the no-effect control and ±100 the full control effect); conditions: ER-alpha-UAS-bla HEK293, beta-lactamase ratio, antagonist mode; activity, negative = inhibition: at 76.9 µM (top of the series) unless noted
Method in brief: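 ER-alpha-UAS-bla GripTite HEK 293 cells in 2% charcoal/dextran-treated FBS medium; compounds titrated (1:2, duplicate), then stimulated with 0.5 nM 17-beta-estradiol for 18 h at 37C. CCF4 beta-lactamase fluorescence; Hill-fit IC50 and efficacy.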

[26] = molecular target: Glucocorticoid receptor (Homo sapiens) (UniProt P04150); experiment: qHTS assay for small molecule agonists of glucocorticoid receptor signaling (AID 588532; active means well fitted curve in the direction sought with a large enough effect in the signal ratio, with a control signal flat; inconclusive means small, poorly fitted or top-dose-only effect, or a change in a side signal; inactive means no such curve, though single readings can be large or run the other way; the % refers to the signal ratio; further: potency means the concentration at half of the fitted maximal effect); conditions: HeLa MMTV-bla, beta-lactamase ratio, agonist, 18 h; activation: active compounds read high, percent of dexamethasone control, DMSO zero
Method in brief: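 Agonist-mode qHTS: GRE-driven beta-lactamase in HeLa cells exposed 18 h to titrated compounds (up to 92 uM), then CCF4 ratio read after 2 h at RT; Hill-fitted EC50, efficacy relative to 0.1 uM dexamethasone.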
Tags describe the fitted curve by direction and shape or compound fluorescence and quenching.

OC1CN=C2Sc3ccccc3N2C1 (stereo not drawn)
activity change, negative = inhibition [1]: inactive: -2.78%

OCCOCCN1CCN([C@@H](c2ccccc2)c2ccc(Cl)cc2)CC1
activity change, negative = inhibition [1]: inconclusive: -37.3% [inhibitor]

OC[C@@H]1O[C@H](n2cnc3c(/C=C(\O)c4ccccc4)ncnc32)[C@H](O)[C@@H]1O
activity change, negative = inhibition [1]: inconclusive: 10.2% [activator] [at 7.69 µM]

COc1ccccc1N(Cc1cc2cccc(C)c2[nH]c1=O)C(=O)C(C)C
activity change, negative = inhibition [1]: inactive: 11.3%

CCOC(=O)c1c(C)n(C)c2ccc(OC)c(NC(=O)c3cccs3)c12
activity change, negative = inhibition [1]: inactive: 5.2%

CCC(C)(C)OC
Potency [2]: inactive: > 92 µM
Potency [3]: inactive
Potency [4]: inactive
Potency [5]: inactive
Potency [6]: inactive
Potency [7]: inconclusive: 75 µM [activator, single point]
Potency [8]: inactive

O=C(c1cncc(Br)c1)N1CCCc2ccccc21
activity change, negative = inhibition [1]: inactive: -6.51%

NS(=O)(=O)c1cc2c(cc1Cl)NC(C1C[C@H]3C=C[C@@H]1C3)NS2(=O)=O (stereo partly drawn)
activity change, negative = inhibition [1]: inactive: -20.1%

Nc1nc2ccccc2[nH]1
Potency [2]: inactive: > 92 µM
Potency [9]: inconclusive: 31.6 µM [cytotoxic, single point]
Potency [10]: inactive
Potency [11]: inactive
Potency [12]: inactive
Potency [13]: inactive
Potency [14]: inactive
Potency [15]: inconclusive: 31.6 µM [side channel, falling, partial curve, poor fit]
activity change % (negative = inhibition) [16]: inactive: 16%
Potency [17]: inactive
Potency [7]: inactive
Potency [18]: inactive

COC(=O)CSC1=C(C#N)C(=O)NC2(CCCCC2)S1
activity change, negative = inhibition [1]: inconclusive: -30.2% [inhibitor]

O=C(O)c1ccc(C(=O)O)cc1
Potency [2]: inactive: > 92 µM
Potency [19]: inactive
activation [17]: inconclusive: 9.65%
activation [20]: inactive: 0.423% and inactive: -1.36%
Potency [7]: inactive
Potency [21]: inactive

C[N+]1(C)CCc2cc(O)c(O)cc2[C@H]1Cc1ccc(O)c(O)c1
activity change, negative = inhibition [1]: inactive: -9.29% [at 7.69 µM]

O=C(c1cnccn1)N1CCC2(CCN(Cc3ccccc3)CC2)CC1
activity change, negative = inhibition [1]: inconclusive: -60.6% [inhibitor] [at 7.69 µM]

Cc1ccc(C(=O)NCC(C)(C)O)cc1
activity change, negative = inhibition [1]: inactive: -4.7%

Cc1nnc2n(-c3ccccc3)c(=O)c3c4c(sc3n12)COC(C)(C)C4
activity change, negative = inhibition [1]: inactive: -10.7%

Cc1ccc(C(C)(C)C)cc1
Potency [2]: inactive: > 92 µM
Potency [22]: inconclusive: 0.251 µM [cytotoxic, full curve, poor fit]
activity, negative = inhibition [14]: inconclusive: 8.47%
Potency [23]: inactive
Potency [7]: inactive

C/C(C=O)=C/c1ccccc1
Potency [2]: inactive: > 92 µM
Potency [24]: inconclusive: 5.01 µM [cytotoxic, full curve, poor fit]
Potency [6]: inactive
Potency [25]: inactive
Potency [26]: inconclusive: 0.0007 µM [side channel, falling, full curve, poor fit]
activation [7]: inconclusive: 13.9%
